The other results are listed elsewhere or left out. Many values rest on one well or one pass, so single values are uncertain.
The molecules below were run on C32 (assay: cell count relative to DMSO control; melanoma cells; higher = more viable cells). Settings: library dose: low library concentration; 72 h.
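Note: cell number obtained by counting DAPI-stained nuclei in high-throughput microscope images with image analysis software, screen run in 1,536-well plates.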

Row | Compound | cell count [%]
1 | CC(C)(C)c1cnc(CSc2cnc(NC(=O)C3CCNCC3)s2)o1 + O=C(Nc1cccc(Cl)c1)Nc1ncc(CCNc2ncnc3ccsc23)s1 [SNS314] (first compound 0.01 µM, partner dose 0.0008 µM) | 87
2 | Cc1ccc(NC(=O)c2cccc(N(C)C)c2)cc1NC(=O)c1ccc(O)cc1 + COc1cc2c(Oc3ccc4[nH]c(C)cc4c3F)ncnc2cc1OCCCN1CCCC1 [cediranib] (first compound 2 µM, partner dose 0.4 µM) | 98.9
3 | NC(=O)c1ccc(N(C(N)=O)c2c(F)cccc2F)nc1-c1ccc(F)cc1F + C[C@@H]1CCN(C(=O)CC#N)C[C@@H]1N(C)c1ncnc2[nH]ccc12 [CP690550] (first compound 0.4 µM, partner dose 1 µM) | 110
4 | NC(=O)c1ccc(N(C(N)=O)c2c(F)cccc2F)nc1-c1ccc(F)cc1F + CC(C)(C)c1cnc(CSc2cnc(NC(=O)C3CCNCC3)s2)o1 [SNS-032] (first compound 0.4 µM, partner dose 0.01 µM) | 91.6
5 | CCCCCCCCc1ccc(CCC(N)(CO)CO)cc1 [fingolimod] + CC1(C)NC(=O)N(c2ccc([N+](=O)[O-])c(C(F)(F)F)c2)C1=O [nilutamide] (first compound 2 µM, partner dose 1 µM) | 78.6
6 | Cc1ccc(NC(=O)c2cccc(N(C)C)c2)cc1NC(=O)c1ccc(O)cc1 + CO[C@@H]1[C@H](N(C)C(=O)c2ccccc2)C[C@H]2O[C@]1(C)n1c3ccccc3c3c4c(c5c6ccccc6n2c5c31)C(=O)NC4 [Midostaurin] (first compound 2 µM, partner dose 0.08 µM) | 85.2
7 | CCCCCCCCc1ccc(CCC(N)(CO)CO)cc1 [fingolimod] + Cc1cc(N2CCOCC2)cc2[nH]c(-c3c(NC[C@@H](O)c4cccc(Cl)c4)cc[nH]c3=O)nc12 [BMS536924] (first compound 2 µM, partner dose 0.2 µM) | 89.5
8 | CCCCCCCCc1ccc(CCC(N)(CO)CO)cc1 [fingolimod] + O=C(O)c1ccc(-c2c[nH]c3ncc(-c4ccccc4)cc23)cc1C1CCCC1 [GSK650394] (first compound 2 µM, partner dose 0.16 µM) | 106
9 | Cc1ccc(NC(=O)c2cccc(N(C)C)c2)cc1NC(=O)c1ccc(O)cc1 + OCCn1cc(-c2cnc3nnn(Cc4ccc5ncccc5c4)c3n2)cn1 [PF04217903] (first compound 2 µM, partner dose 1 µM) | 103
10 | NC(=O)c1ccc(N(C(N)=O)c2c(F)cccc2F)nc1-c1ccc(F)cc1F + C=CCn1c(=O)c2cnc(Nc3ccc(N4CCN(C)CC4)cc3)nc2n1-c1cccc(C(C)(C)O)n1 [MK1775] (first compound 0.4 µM, partner dose 0.02 µM) | 95.2
11 | CC(C)(C)c1cnc(CSc2cnc(NC(=O)C3CCNCC3)s2)o1 + CN(NC(=O)CC(=O)NN(C)C(=S)c1ccccc1)C(=S)c1ccccc1 [STA4783] (first compound 0.01 µM, partner dose 0.006 µM) | 85.7
12 | Cc1ccc(NC(=O)c2cccc(N(C)C)c2)cc1NC(=O)c1ccc(O)cc1 + Cn1cncc1[C@@](N)(c1ccc(Cl)cc1)c1ccc2c(c1)c(-c1cccc(Cl)c1)cc(=O)n2C [tipifarnib] (first compound 2 µM, partner dose 0.01 µM) | 103
13 | Cc1ccc(NC(=O)c2cccc(N(C)C)c2)cc1NC(=O)c1ccc(O)cc1 + NCC(=O)Nc1ccc(-n2nc(C(F)(F)F)cc2-c2ccc3c(ccc4ccccc43)c2)cc1 [OSU03012] (first compound 2 µM, partner dose 1 µM) | 95.5
14 | CCCCCCCCc1ccc(CCC(N)(CO)CO)cc1 [fingolimod] + CN(NC(=O)CC(=O)NN(C)C(=S)c1ccccc1)C(=S)c1ccccc1 [STA4783] (first compound 2 µM, partner dose 0.006 µM) | 77.2
15 | NC(=O)c1ccc(N(C(N)=O)c2c(F)cccc2F)nc1-c1ccc(F)cc1F + COc1cc2c(Oc3ccc4[nH]c(C)cc4c3F)ncnc2cc1OCCCN1CCCC1 [cediranib] (first compound 0.4 µM, partner dose 0.4 µM) | 100

— the supplement of paper PMC4604168 (melanoma cell lines)
